The results in this text go back to ChEMBL document CHEMBL4888484, “Replenishing the malaria drug discovery pipeline: Screening and hit evaluation of the MMV Hit Generation Library 1 (HGL1) against asexual blood stage Plasmodium falciparum ,using a nano luciferase reporter read-out” (2022).

Structures are written as SMILES. About 540 (0.36%) of roughly 150,000 compounds showed an effect of 50% or more. The list shows a part of the results.

As usually defined, the % Inhibition is the relative decrease from the control value, in per cent.

The subject of the assay is Plasmodium falciparum. The assay can be described thus: Primary screen in NF54 nanoGlo assay, in single point, at 2uM, 72h; a lower Z score goes with more inhibition. The class given is functional, Erythrocyte. Particulars: timepoint 72 hour.
In the case of `C#CCN(c1nccs1)S(=O)(=O)c1sccc1OC`, the “% Inhibition” value is listed as -9% and the Z score is on record as 1.31.

As for `COc1ccc(N2CCN(C(=O)C3CC3c3ccco3)CC2)cc1` (centres undefined), the “% Inhibition” value is recorded as -6% and the Z score stood at 0.91.

As to `Cc1ccc(CN2CCNC(=O)[C@@H]2Cc2nc(-c3cccnn3)no2)cc1`, the “% Inhibition” value was -10% and the Z score is on record as 1.84.

`O=C(c1nnc(-c2ccccc2)o1)C1CC1`: the “% Inhibition” value was -10% and the Z score amounted to 1.47.

For `CC(C)(CN)Cc1ccc(Br)cc1`, the “% Inhibition” value is listed as -14% and the Z score turned out to be 1.9.

For the molecule `CC(C)C(O)CNC(=O)C(C)n1ccnc1-c1ccccc1` (centres undefined), the “% Inhibition” value was -1% and the Z score amounted to 0.13.

Take `O=C(Cc1ccccc1)NCCN1CC[C@H](N2CCCCCC2)C1=O`: the “% Inhibition” value turned out to be 7% and the Z score is -0.84.

In the case of `C[C@@H]1[C@@H](c2cccc(F)c2)OCCN1C(=O)c1ccc(C(=O)O)cc1`, the “% Inhibition” value is on record as -6% and the Z score is given as 0.97.

For `O=C(c1ccc(C(F)(F)F)cc1O)N1CCCC1C1CCCO1` (centres undefined), the “% Inhibition” value is 0% and the Z score is 0.02.

On to `Cn1cnnc1-c1cncc(NC(=O)[C@H](C2CC2)N2CCCC2)c1`, for which the “% Inhibition” value is given as -7% and the Z score was 1.08.

As for `CNC(=O)Cc1noc(Cc2nc(-c3ccccc3)oc2C)n1`, the “% Inhibition” value is on record as -26% and the Z score is recorded as 3.11.

Turning to `COc1ccccc1CC(=O)Nc1ccc2c(c1)NC(=O)[C@H](C)O2`, the “% Inhibition” value is reported as -11% and the Z score came to 2.07.

For the molecule `O=S(=O)(Nc1ncn(-c2ccccc2)n1)c1cnc2ccc(F)cc2c1`, the “% Inhibition” value is recorded as -45% and the Z score is recorded as 5.31.

For `Cn1nnc2c(=O)n(Cc3cccc(F)c3)cnc21`, the “% Inhibition” value is recorded as -11% and the Z score is 1.65.

For `Cc1ccc(-c2nn(C)c(=O)c3c2CCCC3)cc1S(=O)(=O)N1CCN(C)CC1`, the “% Inhibition” value is 2% and the Z score is reported as -0.25.

For the molecule `C[C@H]1c2ccc(Cl)n2CCN1CC(=O)NCCOc1ccccc1`, the “% Inhibition” value is on record as -10% and the Z score is listed as 1.83.

On to `CCc1nc(N2CCC[C@H](CCC(=O)Nc3ccc(OC)cc3C)C2)no1`, for which the “% Inhibition” value is reported as 7% and the Z score is listed as -0.84.

Take `CN1C[C@@H]2CC[C@H]1CN(S(=O)(=O)c1ccccc1OC(F)(F)F)C2`: the “% Inhibition” value is on record as -2% and the Z score is reported as 0.29.

For `CC(c1ccccc1)N1C(=O)c2ccccc2C1c1c[nH]c2ccccc12` (centres undefined), the “% Inhibition” value is on record as 43% and the Z score was -5.38.

Regarding `COc1ccc(-c2cc(C(=O)Nc3ccc(N(C)C)cc3)no2)c(F)c1`, the “% Inhibition” value is reported as -13% and the Z score is reported as 1.65.

For `O=C(Nc1cccc(C(F)(F)F)c1)c1nscc1NCc1ccncc1`, the “% Inhibition” value was -8% and the Z score is 1.04.

As to `O=C(NCc1cccnc1)c1coc(CN(Cc2ccccc2F)CC2CC2)n1`, the “% Inhibition” value is on record as -9% and the Z score stood at 1.54.

As for `CC(C)n1cnc(C(=O)OCCn2cccn2)c1`, the “% Inhibition” value came to 7% and the Z score was -0.81.

As for `CN1C[C@@H](c2nc(-c3cc(OC(F)F)ccc3F)no2)NCC1=O`, the “% Inhibition” value is reported as -7% and the Z score is given as 1.2.

For the molecule `COc1ccc(C(=O)N2C[C@H]3CC[C@@H](C2)N(CC2CC2)C3=O)c(OC)c1`, the “% Inhibition” value is -4% and the Z score is on record as 0.5.

`CC[C@@H](CNc1ccc(C(N)=O)nn1)Oc1cccc(F)c1`: the “% Inhibition” value is -7% and the Z score came to 0.75.

With `COCCN1CC[C@@]2(CCC1=O)CN(c1ccc(C(C)=O)cn1)CCN2C`, the “% Inhibition” value is listed as -6% and the Z score is given as 0.87.

`COc1cncc(O[C@H]2CCN(S(=O)(=O)c3ccc(OC)c(OC)c3)C2)n1`: the “% Inhibition” value is -8% and the Z score is on record as 0.89.

Turning to `Cc1ccc(Oc2nc(N3CCC(C)CC3)nc3c2CN(C(=O)c2cccc(C#N)c2)CC3)cc1`, the “% Inhibition” value is -9% and the Z score is 1.37.

Turning to `COC(=O)[C@@H](c1cccc(O)c1)N(C)Cc1nnnn1C(C)(C)C`, the “% Inhibition” value was -11% and the Z score was determined as 0.97.

As for `CCc1[nH]nc(NC(=O)[C@H]2CC(=O)N(c3ccccc3)C2)c1C`, the “% Inhibition” value is listed as -7% and the Z score is 0.6.

Regarding `Cc1cccc(C(C)(C)CN[C@H]2CCCS(=O)(=O)C2)c1`, the “% Inhibition” value is reported as -14% and the Z score was found to be 2.07.

Consider `Nc1[nH]cnc2nc(N3CCN(C(=O)c4ccccc4)CC3)nc1-2`, for which the “% Inhibition” value is reported as -15% and the Z score turned out to be 2.79.

`CO[C@@H]1CO[C@H]2[C@@H]1OC[C@@H]2Nc1nccc(-c2ccc3c(c2)OCO3)n1`: the “% Inhibition” value was -2% and the Z score worked out at 0.19.

Regarding `CC[C@]1(O)CCN(C(=O)c2nn(-c3cccc(F)c3)c3c2CCCC3)C1`, the “% Inhibition” value was -9% and the Z score was 1.01.

As for `FC(F)(F)c1ccc(NCC2(n3cccn3)CC2)nn1`, the “% Inhibition” value was found to be 5% and the Z score is reported as -0.74.

For the molecule `O=c1c2cnccc2ncn1CC1(CO)CCC1`, the “% Inhibition” value is reported as -1% and the Z score was 0.19.

As for `CCN1CCCN(C(=O)CCc2c[nH]c3ccccc23)CC1=O`, the “% Inhibition” value was determined as 4% and the Z score is recorded as -0.39.

On to `O=C(CCc1nc(-c2ccc(S(=O)(=O)N3CCOCC3)cc2)no1)Nc1nccs1`, for which the “% Inhibition” value is listed as -3% and the Z score is recorded as 0.41.

`C[C@H](NCCOc1ccccc1Cl)C1CCS(=O)(=O)CC1`: the “% Inhibition” value is -7% and the Z score was found to be 0.78.

As to `N[C@H]1C[C@H](c2cc(N3CCN(Cc4cccs4)CC3)nc(C3CC3)n2)C1`, the “% Inhibition” value turned out to be 4% and the Z score is -0.7.

Consider `O=C(Nc1ccc(C2CC2)c(F)c1)N1CCN(C(=O)c2cccc(F)c2)CC1`, for which the “% Inhibition” value was -8% and the Z score is given as 0.98.
